Results as given in PubChem BioAssay AID1458 (National Center for Advancing Translational Sciences (NCATS), 2008).
The whole screen tested about 210,000 compounds, of which about 5,900 (2.8%) were called active. Inconclusive results, whose numbers are uncertain, are shown with a selection of clear calls. Calls come from the whole dose curve; as a rule, active = well fitted activation curve with a large enough effect; inconclusive = small, poorly fitted or top-dose-only effect; inactive = no such curve, though single readings can be large or run the other way. Where the call is inconclusive, the potency comes from a doubtful curve fit.

Test: qHTS Assay for Enhancers of SMN2 Splice Variant Expression; note: nearly all actives have a fitted effect of over 55% in size; for activity change, positive = activation: % of control where 0% means no effect
Conditions: HEK293 SMN2-luciferase splicing reporter, luminescence, 30-36 h; activity change, positive = activation: at 46.1 µM (top of the series)
Procedure, shortened: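 HEK293 cells carry an SMN2 […]–luciferase reporter in which exon 7 inclusion puts luciferase in frame. Cells were plated 10-12 h before compound addition, then incubated 30-36 h at 37C. ONE-Glo luminescence was read; sodium butyrate at 4.5 mM final served as control.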
Potency is the fitted concentration of half-maximal effect; tags give direction and shape of the fitted curve.

Compound | Potency | activity change, positive = activation
CC(C)(C)Nc1nc(Oc2ccc(=O)[nH]n2)nc(N2CCOCC2)n1 | inconclusive: 15.8 µM [activator, single point] | 
COc1ccc(Cc2n[nH]c(=S)n2NC(=O)Nc2ccc(C)cc2)cc1 | inconclusive: 25.1 µM [activator, single point] | 
CCN(CC)CCN(Cc1cc2cc3c(cc2[nH]c1=O)OCCO3)C(=O)NC1CCCCC1 | inconclusive: 15.8 µM [activator, partial curve, poor fit] | 
O=c1cc(CN2CCN(c3ccccn3)CC2)nc2sccn12 | inconclusive: 0.0045 µM [activator, full curve, poor fit] | 
COc1ccc(OC)c(-c2cc(C(=O)Nc3cccc(Cl)c3C)no2)c1 |  | inactive: -4.24%
Cc1nc2cc(N3CCCCC3)c(NC(=O)c3ccncc3)cc2c(=O)n1Cc1ccccc1 | inconclusive: 12.6 µM [activator, partial curve] | 
O=C(O)c1cccc(N2C(=O)C3C4C=CC(C4=C(c4ccccc4)c4ccccc4)C3C2=O)c1 (stereo unspecified) |  | inactive: -23.3%
CCNC(=O)COc1ccc(-c2ccccc2)cc1 | inconclusive: 3.16 µM [activator, full curve, poor fit] | 
C/C(N)=C(/C#N)C(=O)COC(=O)c1cc(C)n(-c2ccc(F)cc2)c1C | inconclusive: 31.6 µM [activator, single point] | 
COc1ccc(OCCCn2c(=O)oc3ccc(C)cc32)cc1 | inconclusive: 0.891 µM [activator, full curve, poor fit] | 
Cc1ccc(-c2nnn(CC(=O)N(CC3CCCO3)C(C(=O)NC3CCCC3)c3ccc(F)cc3)n2)o1 (stereo unspecified) | inconclusive: 0.0035 µM [activator, full curve, poor fit] | 
CCN(CC)CCOC(=O)c1cccc(OC)c1 | inconclusive: 0.282 µM [activator, full curve] | 
O=C(Nc1cc(C(F)(F)F)ccc1Cl)c1cc2nc(-c3ccc4c(c3)OCO4)cc(C(F)(F)F)n2n1 |  | inactive: -0.044%
N#Cc1c(=O)c2nc(NCc3ccccc3)ncc2n2ccccc12 | inconclusive: 3.98 µM [activator, full curve] | 
COc1cc(/C=C(\C#N)c2nc3ccc(C)cc3[nH]2)cc([N+](=O)[O-])c1O | inconclusive: 12.6 µM [activator, partial curve] | 
CC(=O)c1c(C)oc2ccc(N(C(=O)Oc3ccccc3)S(=O)(=O)c3ccc(C(C)(C)C)cc3)cc12 |  | inactive: -39.8%
O=C(COc1ccc(Cl)cc1Cl)NC1CCSC1=O (stereo unspecified) | inconclusive: 35.5 µM [activator, single point] | 
CC(C)CC1NC(=O)N(CC(=O)c2ccc3c(c2)OCCO3)C1=O (stereo unspecified) | active: 12.6 µM | 
CC(C)c1cc(C(=O)Nc2cc(Cl)ccc2O)no1 | active: 12.6 µM | 
CN(C)C(=O)Cn1nc(-c2ccccc2)c2ccccc2c1=O | inconclusive: 0.631 µM [activator, full curve, poor fit] | 
Cc1[nH]c2ccccc2c1SCC(=O)Nc1nccs1 | active: 25.1 µM | 
CCOC(=O)C1CCCN(c2nc3ccccc3nc2C(C#N)C(=O)OCC)C1 (stereo unspecified) |  | inactive: -6.33%
O=S(=O)(/N=C(/Nc1ccccn1)c1ccc(Cl)cc1)c1ccc(Cl)cc1 | inconclusive: 3.16 µM [activator, full curve] | 
O=[N+]([O-])c1ccc(N2CCN(C(=S)Nc3ccc(F)cc3F)CC2)cc1 |  | inactive: -23.5%

Compound | Potency | activity change, positive = activation
S=c1[nH]nc(-c2ccccc2)n1/N=C/c1ccc(-c2ccccc2Cl)o1 | inconclusive: 28.2 µM [activator, single point] | 
Cc1ccn(-c2cccc(-n3ccc(C)n3)n2)n1 | active: 7.94 µM | 
CCOC(=O)CCCCC(=O)c1[nH]c(=O)[nH]c1CSc1nc(-c2ccccc2)c(C#N)c(=O)[nH]1 | inconclusive: 8.91 µM [activator, partial curve] | 
O=c1oc(-c2cccs2)nc2ccccc12 | inconclusive: 35.5 µM [activator, partial curve, poor fit] | 
Cc1ccc(C2CC(=O)Nc3cc4c(cc32)OCCO4)s1 (stereo unspecified) | inconclusive: 0.447 µM [activator, full curve, poor fit] | 
CC(C)CSC1=NSC2=NC(=O)/C(=C\c3cccs3)C(=N)N12 | inconclusive: 0.562 µM [activator, partial curve, poor fit] | 
CC(C)C(=O)Nc1cccc(-c2csc(-c3ccccc3)n2)c1 | inconclusive: 35.5 µM [activator, single point] | 
CCc1c(C)nc2ccc(Br)cc2c1SCCC#N |  | inactive: -24%
Cc1ccc(NC(=O)CSc2ccc(C(N)=O)cc2[N+](=O)[O-])cc1 | inconclusive: 35.5 µM [activator, single point] | 
CCN(CC)CCNC1=CC(=O)OC12CCCCC2 | inconclusive: 25.1 µM [activator, single point] | 
c1ccc(CSc2ccc(-c3ccco3)nn2)cc1 | active: 12.6 µM | 
COc1ccccc1NS(=O)(=O)c1ccc(C)c(NC(=O)NC2CCCCC2)c1 | inconclusive: 4.47 µM [activator, single point] | 
COC(=O)c1ccc(Nc2nc(C)cc(=O)[nH]2)cc1 | inconclusive: 4.47 µM [activator, partial curve, poor fit] | 
CC(C)c1nc2n[nH]c(N)c2c2c1CCC2 | inconclusive: 0.0891 µM [activator, full curve, poor fit] | 
O=C1CC(N2CCN(Cc3ccccc3)CC2)C(=O)N1c1ccccc1 (stereo unspecified) | inconclusive: 0.0032 µM [activator, full curve, poor fit] | 
CCN(CC)[C@@H](C)CN1c2ccccc2Sc2ccccc21 |  | inactive: -15.8% [at 20.6 µM]
CCSc1nnc(NC(=O)c2cc(C)on2)s1 | inconclusive: 12.6 µM [activator, single point] | 
COc1ccccc1N(Cc1ccccc1)S(=O)(=O)c1cccc(C(=O)O)c1 | active: 5.01 µM | 
N/C(=N\OC(=O)c1ccc(Br)cc1)c1ccccc1 | inconclusive: 14.1 µM [activator, single point] | 
CCN1CCN(C(=O)c2ccc(-c3nc4ccccc4s3)s2)CC1 | active: 11.2 µM | 
COCC(C)n1c(SCc2cc(=O)n3cc(C)ccc3n2)nc2ccccc2c1=O (stereo unspecified) | inconclusive: 31.6 µM [activator, single point] | 
CC(C)S(=O)(=O)c1nsc2nc(=O)c(/C=C3\C=Nc4ccccc43)c(N)n12 |  | inactive: 6.99%
CCOc1ccc(C2C(C#N)=C(N)SC(N)=C2C#N)cc1OCC | inconclusive: 3.98 µM [activator, single point] | 
COC(=O)[C@@H]1CCCN1C(=O)CCc1nnc(CCC2CCCCC2)o1 | inconclusive: 11.2 µM [activator, partial curve] | 

Compound | Potency | activity change, positive = activation
O=C(c1ccc([N+](=O)[O-])cc1)N1CCN(Cc2ccccc2[N+](=O)[O-])CC1 | inconclusive: 35.5 µM [activator, single point] | 
Cc1cc(C(=O)NCCCn2ccnc2)cs1 | inconclusive: 5.62 µM [activator, single point] | 
Cc1[nH]n(-c2cccc3ccccc23)c(=O)c1/C=N/c1sc2c(c1C#N)CCC2 |  | inactive: -8.27%
Oc1ccccc1CNc1cnc2ccccc2c1 | inconclusive: 22.4 µM [activator, single point] | 
CCCn1nnc(NC(=O)c2ccc(-c3ccccc3)cc2)n1 | inconclusive: 35.5 µM [activator, single point] | 
CCN1/C(=C2\SC(=S)N(Cc3ccccc3)C2=O)Sc2ccccc21 | inconclusive: 35.5 µM [activator, single point] | 
N=C1/C(=C/c2cccn2Cc2ccc(Cl)cc2)C(=O)N=C2SC=CN12 |  | inactive: -28.9%
CC(C)CC(O)(CC(C)C)C(=O)NNc1ccccc1 | inconclusive: 3.16 µM [activator, single point] | 
CCOc1cccc(-c2nc3ccccc3c(=O)o2)c1 | inconclusive: 10 µM [activator, partial curve] | 
COc1ccc(C(=O)Nc2cnc3sc(C)nn3c2=O)cc1 | inconclusive: 35.5 µM [activator, single point] | 
COc1ccc(S(=O)(=O)N(C)CC(=O)NC2CC2)cc1 |  | inactive: 20.8%
COc1ccc(/C=C/c2nc(C#N)c(N3CCC(C(N)=O)CC3)o2)cc1OC | inconclusive: 8.91 µM [activator, partial curve, poor fit] | 
COc1ccc(/C=N/NC2=NCCCCC2)c(OC)c1 | inconclusive: 5.62 µM [activator, single point] | 
Cc1cc(C)cc(NC(=S)NCc2ccc3[nH]c4c(c3c2)CCCC4)c1 | inconclusive: 35.5 µM [activator, single point] | 
CCOC(=O)c1nnc2c(-c3ccc(Cl)cc3)c(C)nn2c1N |  | inactive: 0.239%
CC1CC(C)(C)NC(=S)N1CCCC(=O)NCc1ccccc1 (stereo unspecified) |  | inactive: 10.8%
O=c1[nH]c(SCc2ccccc2)nc2ccsc12 | inconclusive: 20 µM [activator, single point] | 
CC(C)Cc1nn2cc(-c3cccc(Br)c3)nc2s1 |  | inactive: -1.47%
COc1ccc(C(=O)CSc2nnc(CN3CCCCC3)n2-c2ccc(Cl)cc2)cc1OC |  | inactive: -31.8%
O=C(Nc1ccccc1SCC1CSc2nc3ccccc3c(=O)n21)c1ccccc1 (stereo unspecified) | inconclusive: 22.4 µM [activator, single point] | 
COc1ccccc1C(C)NCC(=O)Nc1ccccc1C(F)(F)F (stereo unspecified) | active: 4.47 µM | 
Cc1ccc(NCC(=O)c2ccccc2)cc1Cl | active: 17.8 µM | 
COC(=O)c1c(C)n(-c2ccc(OC)cc2)c2ccc(O)cc12 | active: 4.47 µM | 
